In all, about 310,000 compounds went through this assay and about 2,200 (0.71%) showed an effect of 50% or more. Effects have a minus sign here. This is one part of the list.
The compounds below were run against human ether-à-go-go-related gene (hERG) potassium channel (human, UniProt Q12809) (assay: primary screen, population patch clamp on CHO cells stably expressing hERG).
Chain of human ether-à-go-go-related gene (hERG) potassium channel (Q12809 whole entry, looked up): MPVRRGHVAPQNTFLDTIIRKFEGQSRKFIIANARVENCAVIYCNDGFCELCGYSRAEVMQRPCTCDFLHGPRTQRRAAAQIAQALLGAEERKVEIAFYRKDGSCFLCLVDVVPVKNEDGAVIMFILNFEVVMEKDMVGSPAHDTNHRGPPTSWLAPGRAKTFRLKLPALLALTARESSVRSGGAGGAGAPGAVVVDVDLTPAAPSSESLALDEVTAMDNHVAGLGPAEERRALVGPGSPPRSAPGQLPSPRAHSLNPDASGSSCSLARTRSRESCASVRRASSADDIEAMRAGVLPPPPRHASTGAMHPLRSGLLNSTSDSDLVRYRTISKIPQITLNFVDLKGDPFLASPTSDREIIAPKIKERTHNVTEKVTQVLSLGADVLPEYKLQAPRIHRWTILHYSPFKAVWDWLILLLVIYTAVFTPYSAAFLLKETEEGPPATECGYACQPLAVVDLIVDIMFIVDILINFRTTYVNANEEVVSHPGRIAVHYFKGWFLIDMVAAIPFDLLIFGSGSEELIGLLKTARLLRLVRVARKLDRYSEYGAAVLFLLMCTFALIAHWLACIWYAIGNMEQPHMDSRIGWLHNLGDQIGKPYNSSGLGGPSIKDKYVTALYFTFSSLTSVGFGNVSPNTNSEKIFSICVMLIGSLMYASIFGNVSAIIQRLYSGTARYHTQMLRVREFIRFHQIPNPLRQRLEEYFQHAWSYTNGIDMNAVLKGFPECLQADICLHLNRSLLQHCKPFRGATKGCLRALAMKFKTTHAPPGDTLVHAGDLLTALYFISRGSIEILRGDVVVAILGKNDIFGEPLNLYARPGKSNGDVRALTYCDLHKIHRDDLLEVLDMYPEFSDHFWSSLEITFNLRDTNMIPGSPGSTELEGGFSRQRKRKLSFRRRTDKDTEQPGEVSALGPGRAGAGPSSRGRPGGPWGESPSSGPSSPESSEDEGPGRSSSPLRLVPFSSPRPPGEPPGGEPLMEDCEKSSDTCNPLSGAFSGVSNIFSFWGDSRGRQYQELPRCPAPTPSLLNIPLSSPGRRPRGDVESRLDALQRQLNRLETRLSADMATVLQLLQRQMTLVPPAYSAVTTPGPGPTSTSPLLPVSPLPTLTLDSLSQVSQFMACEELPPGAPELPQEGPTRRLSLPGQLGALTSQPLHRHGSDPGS

Row | Compound | hERG current change (%, negative = inhibition) at 1uM [%]
1 | Cc1ccc(C(NC(=O)C(C)C)c2cc([N+](=O)[O-])c3cccnc3c2O)cc1 (stereo not shown) | 4.11
2 | Cc1ccc(NC(=O)CSc2n[nH]c(-c3cccnc3)n2)c(Br)c1 | 14.2
3 | CCN(Cc1ccccc1)c1ccc(/C=N/NS(=O)(=O)c2cccc([N+](=O)[O-])c2)cc1 | 5.72
4 | Cc1ccc(COCCN2CCN(S(=O)(=O)c3ccccc3)CCC2=O)cc1 | -1.77
5 | Clc1ccc(Cn2c(-c3cccnc3Cl)nc3ccccc32)c(Cl)c1 | 0.318
6 | O=C(CCCN1C(=O)c2ccccc2C1=O)N1CCOCC1 | 14.4
7 | COC(=O)CCC(=O)Nc1ccc(S(=O)(=O)N2CCCCCC2)cc1 | -11.4
8 | COc1cc(/C=N/NC(=O)c2cc(-c3ccccc3OC(C)C)nc3ccccc23)ccc1O | 6.54
9 | FC(F)Oc1ccc(-n2cc(-c3ccc(Cl)cc3)[n+]3c2CCCCC3)cc1.[Br-] | -45.2
10 | COc1ccc(C2/C(=C(/O)c3ccc4c(c3)CC(C)O4)C(=O)C(=O)N2CCN2CCOCC2)cc1 (stereo not shown) | 5.07
11 | COC(=O)c1ccsc1NC(=O)c1cccc(OC)c1 | 7.72
12 | C=CCc1cc(C=C2C(=O)NC(=O)NC2=O)cc(OC)c1OCc1ccc(C(=O)O)cc1 | 14.7
13 | CCCC(=O)Oc1ccc(C2NC(=O)c3ccccc3O2)cc1OC (stereo not shown) | 13.7
14 | O=C(CC1Oc2ccccc2NC1=O)NCc1ccc(Cl)cc1 (stereo not shown) | 10.6
15 | CC(C)Oc1ccc(C2C(C#N)=C(N)Oc3c2oc(CO)cc3=O)cc1 (stereo not shown) | 9.22
16 | C/C(=N/NC(=O)CN1CCN(S(=O)(=O)c2ccc(C)cc2)CC1)c1cccc(O)c1 | 1.38
17 | O=C(NNC(=O)c1cc(Cl)ccc1O)c1ccc(NS(=O)(=O)c2cccs2)cc1 | 3.26
18 | CCOC(=O)C1(Cc2ccccc2)CCN(Cc2cnn(CC)c2)CC1 | 1.92
19 | C=CCNC(=O)COC(=O)CCC(=O)c1cccs1 | 5.9
20 | CCN1C2=C(C(=O)CCC2)C(c2ccc(O)cc2)C2=C1CCCC2=O | 10.1
21 | CCn1c(SCC(=O)Nc2ccc(N3CCOCC3)cc2)nnc1-c1ccco1 | 3.03
22 | CCOC(=O)c1c(C)[nH]c(C)c1S(=O)(=O)N(C)CC(=O)NCc1cccc(Br)c1 | -2.62
23 | C[C@@H]1CCCCCCCCC(=O)OCCN1C(=O)OC(C)(C)C | 5.96
24 | Cc1ccc(N(Cc2ccc(C(=O)NCCSc3ccccn3)cc2)S(C)(=O)=O)cc1C | 8.27
25 | Cc1ccc(NS(=O)(=O)c2ccc3[nH]c(=O)[nH]c3c2)cc1 | 14.5
26 | CC(C)c1ccccc1NC(=O)COc1ccc2c(=O)c(Oc3ccc4ccccc4c3)coc2c1 | 12.5
27 | COC(=O)c1ccc(CNC(=O)COc2ccccc2Br)o1 | 12.4
28 | C/C(=N\NC(=O)COc1ccc(C)cc1[N+](=O)[O-])c1cccs1 | 13

Row | Compound | hERG current change (%, negative = inhibition) at 1uM [%]
29 | COc1ccc(C(C)=O)cc1CC(=O)NC1CCCCCC1 | 6.38
30 | Cc1ccc(CCNS(=O)(=O)c2cc3c(cc2C)n(C)c(=O)c(=O)n3C)cc1 | -3.22
31 | O=[N+]([O-])c1ccc(Nc2ccccc2)cc1 | 8.55
32 | CCOCCCNC(=O)c1cn(CC(C)C)c(=O)c2c1c1ccccc1n2C | 14.7
33 | Cc1ccc(C(=O)N2CCN(S(=O)(=O)c3ccc(C)c([N+](=O)[O-])c3)C2)cc1 | -9.1
34 | CS/C(=C\[N+](=O)[O-])Nc1ccc(Cl)cc1 | -0.306
35 | C=CCc1cc(Cl)ccc1OC(=O)Nc1cccc(Cl)c1 | 5.9
36 | COc1cc(/C=C2\C(=O)ON=C2c2ccccc2)cc(Cl)c1O | -1.92
37 | CCC(=O)Nc1c2c(nn1-c1ccc([N+](=O)[O-])cc1)CS(=O)(=O)C2 | 14.3
38 | NC(=O)C1CCN(Cc2nc3ccccc3c(=O)[nH]2)CC1 | 12.6
39 | O=C(c1ccc(Br)cc1)N1CCCc2ccccc21 | 7.16
40 | COc1ccc(/C=N/NC(=O)CCCC(=O)NC2CCCCC2)cc1 | 16.9
41 | Cc1nc(-c2cccc(NS(=O)(=O)c3ccccc3)c2)cs1 | 2.72
42 | Cc1[nH]nc2c1C(c1ccc(-c3ccccc3C#N)o1)C(C#N)=C(N)O2 (stereo not shown) | 7.6
43 | CC1=C(C)CC(C(=O)NCCc2ccc(F)cc2)C(C(=O)O)C1 (stereo not shown) | 11.5
44 | CN1C(=O)CC(n2c(CO)nc3ccccc32)C1=O (stereo not shown) | 8.7
45 | COc1cc(/C=C2\C(=N)N3N=CSC3=NC2=O)cc(Br)c1OC(=O)c1ccco1 | 2.37
46 | CCOC(=O)c1ccc(CC(=O)c2ccc(O)cc2O)o1 | 5.66
47 | Cc1ccc2cc(CCNC(=O)c3ccco3)c(=O)[nH]c2c1 | 7.95
48 | O=S(=O)(NCc1ccc(F)cc1)c1ccc(-c2cnc(C3CC3)o2)cc1 | 13.7
49 | CC(Oc1ccc(Cl)cc1)C(=O)N1CCN(C(=O)c2ccco2)CC1 (stereo not shown) | 5.48
50 | COc1ccc(N(CC(=O)NC2CCCCC2)C(=O)CNC(=O)c2cccs2)cc1OC | 11.8
51 | COc1ccc(C(O)(C(=O)NNc2ccc(C)cc2)c2cccs2)cc1 (stereo not shown) | 7.81
52 | CCn1c(CNC(=O)c2cccc(C)c2)nnc1SCC(=O)Nc1nnc(C)s1 | 12.3
53 | CCOc1ccccc1Oc1coc2cc(OC)ccc2c1=O | 13.4
54 | CCCN1CCN(S(=O)(=O)c2cn(C)nc2C)CC1 | 18.8
55 | COc1ccc(/C=C(\NC(=O)c2cccs2)C(=O)Nc2cccc3ccccc23)cc1OC | 3.26

Reference: publication PMC4336329 (PLoS ONE, 2015)
